Data as given in paper PMC3983190, “Chemical Derivatives of a Small Molecule Deubiquitinase Inhibitor Have Antiviral Activity against Several RNA Viruses” (PLoS ONE, 2014).

What was measured:
[1] = tested on: active cellular DUBs; test: Deubiquitinase activity assay (HA-UbVS labeling) in RAW 264.7 cells; conditions: 5 µM, 4 h, compared to untreated cells
[2] = tested on: RAW 264.7 cells

Compound: CCCC(NC(=O)/C(C#N)=C/c1cccc(F)n1)c1ccc(OCCN2CCOCC2)cc1 (stereo not drawn) [Compound 7]
- active DUBs by HA-UbVS labeling (anti-HA immunoblot) [1]: diminished expression of active DUBs

Compound: CCC[C@H](NC(=O)/C(C#N)=C/c1cccc(Br)n1)c1ccccc1 [WP1130, reference compound]
- active DUBs by HA-UbVS labeling (anti-HA immunoblot) [1]: diminished expression of active DUBs
- concentrations showing marked toxicity [2]: above 6 µM
